Source: article PMC10466050, “A comparative study of human and zebrafish glucocorticoid receptor activities of natural and pharmaceutical steroids” (Frontiers in Endocrinology, 2023)
Where two headings read alike, the source gives them in different places.

Tests used:
hGR = molecular target: T1, hGR (Homo sapiens, UniProt P04150); assay: Whole-cell ligand competition assay with [3H]-dexamethasone, HMLN-hGR cells; assay type: binding; design: expressed in transfected cells; settings: for IC50: HMLN-hGR whole cells, 1 nM [3H]-DEX as tracer, 3 h; for RBA (relative binding affinity): HMLN-hGR, DEX = 100
T1 sequence (P04150 1-777): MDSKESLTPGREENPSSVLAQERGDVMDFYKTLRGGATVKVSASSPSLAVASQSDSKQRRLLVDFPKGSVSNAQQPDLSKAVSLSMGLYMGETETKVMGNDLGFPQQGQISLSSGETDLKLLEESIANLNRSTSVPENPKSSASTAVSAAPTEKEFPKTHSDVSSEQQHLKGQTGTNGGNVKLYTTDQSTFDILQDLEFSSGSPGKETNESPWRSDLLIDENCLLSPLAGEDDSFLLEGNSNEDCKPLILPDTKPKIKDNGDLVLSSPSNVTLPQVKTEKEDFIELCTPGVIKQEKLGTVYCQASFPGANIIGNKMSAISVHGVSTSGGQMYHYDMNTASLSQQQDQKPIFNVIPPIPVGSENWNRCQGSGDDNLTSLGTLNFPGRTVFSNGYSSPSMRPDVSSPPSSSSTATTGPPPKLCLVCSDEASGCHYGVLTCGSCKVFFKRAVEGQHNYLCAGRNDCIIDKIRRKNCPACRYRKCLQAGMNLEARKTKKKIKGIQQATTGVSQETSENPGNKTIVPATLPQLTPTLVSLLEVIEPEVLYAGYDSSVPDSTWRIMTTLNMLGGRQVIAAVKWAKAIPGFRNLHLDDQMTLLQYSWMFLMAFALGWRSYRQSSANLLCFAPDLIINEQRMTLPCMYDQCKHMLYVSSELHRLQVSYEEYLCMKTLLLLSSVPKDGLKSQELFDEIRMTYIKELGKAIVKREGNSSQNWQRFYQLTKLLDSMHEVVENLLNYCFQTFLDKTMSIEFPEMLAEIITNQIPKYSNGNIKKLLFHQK
Procedure: (§1) After 3 h, unbound material was aspirated, and cells were washed three times with cold PBS in order to remove additional unbound material. Then, 150 μl of lysis buffer (250 mM Tris phosphate pH 7.8, 0.1% triton X-100) was added and plates were shaked for 5 min. 50 μl of the total cell lysate was mixed with of 50 μl of LSC-cocktail (Emulsifier-Safe, Perkin Elmer) and [3H] bound radioactivity was liquid scintillation counted (MicroBeta trilux, Perkin Elmer). Protein concentration of 50 μl of the total cell lysate was measured by Bio-Rad protein assay and used to normalize bound radioactivity values expressed in dpm. Results were plotted as measured dpm versus concentration of tested compound. […] All the experiments were performed in quadruplicates and in at least three independent experiments.
(§2) For ligand binding assays, dose-response curves were also fitted using GraphPad Prism.

zfGR = zfGR (Danio rerio, UniProt Q1XHK0); assay: Whole-cell ligand competition assay with [3H]-dexamethasone, UMLN-zfGR cells; assay type: binding, zebrafish; settings: for RBA (relative binding affinity): UMLN-zfGR, DEX = 100
Procedure: as §1, §2

IC50 (zfGR; UMLN-zfGR whole cells, 1 nM [3H]-DEX as tracer, 3 h, read-out: IC50) [µM] | Compound | IC50 (hGR) [µM] | IC50 (zfGR) [µM] | RBA (relative binding affinity) (zfGR) | RBA (relative binding affinity) (hGR)
– | C[C@]12CCC(=O)C=C1CC[C@@H]1[C@@H]2[C@@H](O)C[C@]2(C=O)[C@@H](C(=O)CO)CC[C@@H]12 [aldosterone] | 0.794 | 1.37 | 0.226 | –
– | CSCC(=O)C1C(C)CC2C3CCC4=CC(=O)C=CC4(C)C3(F)C(O)CC21C (stereo not drawn) [RU24782] | – | 0.109 | – | 13.1
0.539 | CCOC1=CC2=C(C)CC3C(C(O)CC4(C)C3CC(C)C43OCOC34COCO4)C2(C)CC1 (stereo not drawn) [forbimenol] | 0.409 | – | 0.58 | 1.41
